# Test system: human monocyte-derived DC (MoDC)
# Experiment: MoDC activation, IL-12p40 ELISA
# Type: cell-based
# Conditions: Example 13; 100-12.5 nM, 48 hours
row,Molecule,IL-12 production (agonistic potential)
1,"A9 C127S: A9 VH with IgG2 C127S constant domain; heavy chain SEQ ID NO: 74, light chain SEQ ID NO: 9 (antibody, A9 VH domain and IgG2 C127S constant domain; Light chain) heavy: EVQLLESGGGLVQPGGSLRLSCAASGFTFSSYAMSWVRQAPGKGLEWVSGISGYSGSTYYADSVKGRFTISRDNSKNTLYLQMNSLRAEDTAVYYCARYYSYYGYYYFDYWGQGTLVTVSSASTKGPSVFPLAPSSRSTSESTAALGCLVKDYFPEPVTVSWNSGALTSGVHTFPAVLQSSGLYSLSSVVTVPSSNFGTQTYTCNVDHKPSNTKVDKTVERKCCVECPPCPAPPVAGPSVFLFPPKPKDTLMISRTPEVTCVVVDVSHEDPEVQFNWYVDGVEVHNAKTKPREEQFNSTFRVVSVLTVVHQDWLNGKEYKCKVSNKGLPAPIEKTISKTKGQPREPQVYTLPPSREEMTKNQVSLTCLVKGFYPSDIAVEWESNGQPENNYKTTPPMLDSDGSFFLYSKLTVDKSRWQQGNVFSCSVMHEALHNHYTQKSLSLSPGK light: DIQMTQSPSSLSASVGDRVTITCRASQSISSYLNWYQQKPGKAPKLLIYAASSLQSGVPSRFSGSGSGTDFTLTISSLQPEDFATYYCQQGYPYPFTFGQGTKLEIKRTVAAPSVFIFPPSDEQLKSGTASVVCLLNNFYPREAKVQWKVDNALQSGNSQESVTEQDSKDSTYSLSSTLTLSKADYEKHKVYACEVTHQGLSSPVTKSFNRGEC",dose-dependent agonistic potential
2,"X-SM083-bi-31: bispecific: Y-SM083-A9 IgG2 C127S, FITC8 scFv at CH3, G4S linker (antibody) heavy: EVQLLESGGGLVQPGGSLRLSCAASGFTFSSYAMSWVRQAPGKGLEWVSGISGYSGSTYYADSVKGRFTISRDNSKNTLYLQMNSLRAEDTAVYYCARYYSYYGYYYFDYWGQGTLVTVSSASTKGPSVFPLAPSSRSTSESTAALGCLVKDYFPEPVTVSWNSGALTSGVHTFPAVLQSSGLYSLSSVVTVPSSNFGTQTYTCNVDHKPSNTKVDKTVERKCCVECPPCPAPPVAGPSVFLFPPKPKDTLMISRTPEVTCVVVDVSHEDPEVQFNWYVDGVEVHNAKTKPREEQFNSTFRVVSVLTVVHQDWLNGKEYKCKVSNKGLPAPIEKTISKTKGQPREPQVYTLPPSREEMTKNQVSLTCLVKGFYPSDIAVEWESNGQPENNYKTTPPMLDSDGSFFLYSKLTVDKSRWQQGNVFSCSVMHEALHNHYTQKSLSLSPGKGGGGSEVQLLESGGGLVQPGGSLRLSCAASGFTFSNYWMSWVRQAPGKGLEWVSGISGNGGYTYFADSVKDRFTISRDNSKNTLYLQMNSLRAEDTAVYYCAGGDGSGWSFWGQGTLVTVSSGGGGSGGGGSGGGGSGGGGSQSVLTQPPSASGTPGQRVTISCTGSSSNIGAGYDVHWYQQLPGTAPKLLIYGNNNRPSGVPDRFSGSKSGTSASLAISGLRSEDEADYYCAAWDDSLSGRVFGGGTKLTVL light: DIQMTQSPSSLSASVGDRVTITCRASQSISSYLNWYQQKPGKAPKLLIYAASSLQSGVPSRFSGSGSGTDFTLTISSLQPEDFATYYCQQGYPYPFTFGQGTKLEIKRTVAAPSVFIFPPSDEQLKSGTASVVCLLNNFYPREAKVQWKVDNALQSGNSQESVTEQDSKDSTYSLSSTLTLSKADYEKHKVYACEVTHQGLSSPVTKSFNRGEC",retained their respective agonistic potential in a dose-dependent manner
3,"X-SM083-bi-32: bispecific: Y-SM083-A9 IgG2 C127S, FITC8 scFv at CH3, (G4S)4 linker (antibody) heavy: EVQLLESGGGLVQPGGSLRLSCAASGFTFSSYAMSWVRQAPGKGLEWVSGISGYSGSTYYADSVKGRFTISRDNSKNTLYLQMNSLRAEDTAVYYCARYYSYYGYYYFDYWGQGTLVTVSSASTKGPSVFPLAPSSRSTSESTAALGCLVKDYFPEPVTVSWNSGALTSGVHTFPAVLQSSGLYSLSSVVTVPSSNFGTQTYTCNVDHKPSNTKVDKTVERKCCVECPPCPAPPVAGPSVFLFPPKPKDTLMISRTPEVTCVVVDVSHEDPEVQFNWYVDGVEVHNAKTKPREEQFNSTFRVVSVLTVVHQDWLNGKEYKCKVSNKGLPAPIEKTISKTKGQPREPQVYTLPPSREEMTKNQVSLTCLVKGFYPSDIAVEWESNGQPENNYKTTPPMLDSDGSFFLYSKLTVDKSRWQQGNVFSCSVMHEALHNHYTQKSLSLSPGKGGGSGGGSGGGSGGGSEVQLLESGGGLVQPGGSLRLSCAASGFTFSNYWMSWVRQAPGKGLEWVSGISGNGGYTYFADSVKDRFTISRDNSKNTLYLQMNSLRAEDTAVYYCAGGDGSGWSFWGQGTLVTVSSGGGGSGGGGSGGGGSGGGGSQSVLTQPPSASGTPGQRVTISCTGSSSNIGAGYDVHWYQQLPGTAPKLLIYGNNNRPSGVPDRFSGSKSGTSASLAISGLRSEDEADYYCAAWDDSLSGRVFGGGTKLTVL light: DIQMTQSPSSLSASVGDRVTITCRASQSISSYLNWYQQKPGKAPKLLIYAASSLQSGVPSRFSGSGSGTDFTLTISSLQPEDFATYYCQQGYPYPFTFGQGTKLEIKRTVAAPSVFIFPPSDEQLKSGTASVVCLLNNFYPREAKVQWKVDNALQSGNSQESVTEQDSKDSTYSLSSTLTLSKADYEKHKVYACEVTHQGLSSPVTKSFNRGEC",retained their respective agonistic potential in a dose-dependent manner
4,"X-SM083-bi-28: bispecific: Y-SM083-A9 IgG2, FITC8 scFv at CL, (G4S)2 linker (antibody) heavy: EVQLLESGGGLVQPGGSLRLSCAASGFTFSSYAMSWVRQAPGKGLEWVSGISGYSGSTYYADSVKGRFTISRDNSKNTLYLQMNSLRAEDTAVYYCARYYSYYGYYYFDYWGQGTLVTVSSASTKGPSVFPLAPCSRSTSESTAALGCLVKDYFPEPVTVSWNSGALTSGVHTFPAVLQSSGLYSLSSVVTVPSSNFGTQTYTCNVDHKPSNTKVDKTVERKCCVECPPCPAPPVAGPSVFLFPPKPKDTLMISRTPEVTCVVVDVSHEDPEVQFNWYVDGVEVHNAKTKPREEQFNSTFRVVSVLTVVHQDWLNGKEYKCKVSNKGLPAPIEKTISKTKGQPREPQVYTLPPSREEMTKNQVSLTCLVKGFYPSDIAVEWESNGQPENNYKTTPPMLDSDGSFFLYSKLTVDKSRWQQGNVFSCSVMHEALHNHYTQKSLSLSPGK light: DIQMTQSPSSLSASVGDRVTITCRASQSISSYLNWYQQKPGKAPKLLIYAASSLQSGVPSRFSGSGSGTDFTLTISSLQPEDFATYYCQQGYPYPFTFGQGTKLEIKRTVAAPSVFIFPPSDEQLKSGTASVVCLLNNFYPREAKVQWKVDNALQSGNSQESVTEQDSKDSTYSLSSTLTLSKADYEKHKVYACEVTHQGLSSPVTKSFNRGECGGGGSGGGGSEVQLLESGGGLVQPGGSLRLSCAASGFTFSNYWMSWVRQAPGKGLEWVSGISGNGGYTYFADSVKDRFTISRDNSKNTLYLQMNSLRAEDTAVYYCAGGDGSGWSFWGQGTLVTVSSGGGGSGGGGSGGGGSGGGGSQSVLTQPPSASGTPGQRVTISCTGSSSNIGAGYDVHWYQQLPGTAPKLLIYGNNNRPSGVPDRFSGSKSGTSASLAISGLRSEDEADYYCAAWDDSLSGRVFGGGTKLTVL",retained their respective agonistic potential in a dose-dependent manner
5,"X-SM083-bi-29: bispecific: Y-SM083-A9 IgG2 C127S, FITC8 scFv at CH3, (G4S)2 linker (antibody) heavy: EVQLLESGGGLVQPGGSLRLSCAASGFTFSSYAMSWVRQAPGKGLEWVSGISGYSGSTYYADSVKGRFTISRDNSKNTLYLQMNSLRAEDTAVYYCARYYSYYGYYYFDYWGQGTLVTVSSASTKGPSVFPLAPSSRSTSESTAALGCLVKDYFPEPVTVSWNSGALTSGVHTFPAVLQSSGLYSLSSVVTVPSSNFGTQTYTCNVDHKPSNTKVDKTVERKCCVECPPCPAPPVAGPSVFLFPPKPKDTLMISRTPEVTCVVVDVSHEDPEVQFNWYVDGVEVHNAKTKPREEQFNSTFRVVSVLTVVHQDWLNGKEYKCKVSNKGLPAPIEKTISKTKGQPREPQVYTLPPSREEMTKNQVSLTCLVKGFYPSDIAVEWESNGQPENNYKTTPPMLDSDGSFFLYSKLTVDKSRWQQGNVFSCSVMHEALHNHYTQKSLSLSPGKGGGGSGGGGSEVQLLESGGGLVQPGGSLRLSCAASGFTFSNYWMSWVRQAPGKGLEWVSGISGNGGYTYFADSVKDRFTISRDNSKNTLYLQMNSLRAEDTAVYYCAGGDGSGWSFWGQGTLVTVSSGGGGSGGGGSGGGGSGGGGSQSVLTQPPSASGTPGQRVTISCTGSSSNIGAGYDVHWYQQLPGTAPKLLIYGNNNRPSGVPDRFSGSKSGTSASLAISGLRSEDEADYYCAAWDDSLSGRVFGGGTKLTVL light: DIQMTQSPSSLSASVGDRVTITCRASQSISSYLNWYQQKPGKAPKLLIYAASSLQSGVPSRFSGSGSGTDFTLTISSLQPEDFATYYCQQGYPYPFTFGQGTKLEIKRTVAAPSVFIFPPSDEQLKSGTASVVCLLNNFYPREAKVQWKVDNALQSGNSQESVTEQDSKDSTYSLSSTLTLSKADYEKHKVYACEVTHQGLSSPVTKSFNRGEC",retained their respective agonistic potential in a dose-dependent manner
6,"X-SM083-bi-30: bispecific: Y-SM083-A9 IgG2 C127S, FITC8 scFv at CL, (G4S)2 linker (antibody) heavy: EVQLLESGGGLVQPGGSLRLSCAASGFTFSSYAMSWVRQAPGKGLEWVSGISGYSGSTYYADSVKGRFTISRDNSKNTLYLQMNSLRAEDTAVYYCARYYSYYGYYYFDYWGQGTLVTVSSASTKGPSVFPLAPSSRSTSESTAALGCLVKDYFPEPVTVSWNSGALTSGVHTFPAVLQSSGLYSLSSVVTVPSSNFGTQTYTCNVDHKPSNTKVDKTVERKCCVECPPCPAPPVAGPSVFLFPPKPKDTLMISRTPEVTCVVVDVSHEDPEVQFNWYVDGVEVHNAKTKPREEQFNSTFRVVSVLTVVHQDWLNGKEYKCKVSNKGLPAPIEKTISKTKGQPREPQVYTLPPSREEMTKNQVSLTCLVKGFYPSDIAVEWESNGQPENNYKTTPPMLDSDGSFFLYSKLTVDKSRWQQGNVFSCSVMHEALHNHYTQKSLSLSPGK light: DIQMTQSPSSLSASVGDRVTITCRASQSISSYLNWYQQKPGKAPKLLIYAASSLQSGVPSRFSGSGSGTDFTLTISSLQPEDFATYYCQQGYPYPFTFGQGTKLEIKRTVAAPSVFIFPPSDEQLKSGTASVVCLLNNFYPREAKVQWKVDNALQSGNSQESVTEQDSKDSTYSLSSTLTLSKADYEKHKVYACEVTHQGLSSPVTKSFNRGECGGGGSGGGGSEVQLLESGGGLVQPGGSLRLSCAASGFTFSNYWMSWVRQAPGKGLEWVSGISGNGGYTYFADSVKDRFTISRDNSKNTLYLQMNSLRAEDTAVYYCAGGDGSGWSFWGQGTLVTVSSGGGGSGGGGSGGGGSGGGGSQSVLTQPPSASGTPGQRVTISCTGSSSNIGAGYDVHWYQQLPGTAPKLLIYGNNNRPSGVPDRFSGSKSGTSASLAISGLRSEDEADYYCAAWDDSLSGRVFGGGTKLTVL",retained their respective agonistic potential in a dose-dependent manner

# — US12630643B2, “CD40 binding protein, bispecific conjugate thereof and method of treating cancer” (priority 2020, dated 2026)
